# Where a chain is given by its changes, count along the chain named. The list shows a part of the results.
# T1: RBFOX1 RRM RbFoxmut (Fox-RRM*) (Homo sapiens, UniProt Q9NWB1 109-208, R118D;E147R;N151S;E152T)
# T1 sequence: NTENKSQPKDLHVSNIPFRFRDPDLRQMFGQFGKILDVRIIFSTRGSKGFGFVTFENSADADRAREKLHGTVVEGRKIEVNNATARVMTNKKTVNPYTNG
# B1: GGGCGGG (DNA:RNA)
# RNA: GGGAGACCGGAAUUCAGAUUGUCCGGGCGGGUUAAAUCCCGUCGUAGCCACCA
# DNA 1: CAATCTGAATTCCGGTCTCCC
# DNA 2: TGGTGGCTACGACGGGATT
# B2: AACAGUA (DNA:RNA)
# RNA: B1 RNA with G25A, G26A, G27C, C28A, G30U, G31A
# DNA 1: CAATCTGAATTCCGGTCTCCC
# DNA 2: TGGTGGCTACGACGGGATT
# B3: AGUUGUA (DNA:RNA)
# RNA: B1 RNA with G25A, G27U, C28U, G30U, G31A
# DNA 1: CAATCTGAATTCCGGTCTCCC
# DNA 2: TGGTGGCTACGACGGGATT
# B4: AUCGGGG (DNA:RNA)
# RNA: B1 RNA with G25A, G26U, G27C, C28G
# DNA 1: CAATCTGAATTCCGGTCTCCC
# DNA 2: TGGTGGCTACGACGGGATT
# B5: UGUAUUA (DNA:RNA)
# RNA: B1 RNA with G25U, G27U, C28A, G29U, G30U, G31A
# DNA 1: CAATCTGAATTCCGGTCTCCC
# DNA 2: TGGTGGCTACGACGGGATT
# B6: UUAGCGU (DNA:RNA)
# RNA: B1 RNA with G25U, G26U, G27A, C28G, G29C, G31U
# DNA 1: CAATCTGAATTCCGGTCTCCC
# DNA 2: TGGTGGCTACGACGGGATT
# B7: AGGUCAC (DNA:RNA)
# RNA: B1 RNA with G25A, C28U, G29C, G30A, G31C
# DNA 1: CAATCTGAATTCCGGTCTCCC
# DNA 2: TGGTGGCTACGACGGGATT
# B8: GGAUAUG (DNA:RNA)
# RNA: B1 RNA with G27A, C28U, G29A, G30U
# DNA 1: CAATCTGAATTCCGGTCTCCC
# DNA 2: TGGTGGCTACGACGGGATT
# B9: GUAUUCA (DNA:RNA)
# RNA: B1 RNA with G26U, G27A, C28U, G29U, G30C, G31A
# DNA 1: CAATCTGAATTCCGGTCTCCC
# DNA 2: TGGTGGCTACGACGGGATT
# B10: GUCGAAG (DNA:RNA)
# RNA: B1 RNA with G26U, G27C, C28G, G29A, G30A
# DNA 1: CAATCTGAATTCCGGTCTCCC
# DNA 2: TGGTGGCTACGACGGGATT
# B11: GAGUCGG (DNA:RNA)
# RNA: B1 RNA with G26A, C28U, G29C
# DNA 1: CAATCTGAATTCCGGTCTCCC
# DNA 2: TGGTGGCTACGACGGGATT
# B12: GCUACAA (DNA:RNA)
# RNA: B1 RNA with G26C, G27U, C28A, G29C, G30A, G31A
# DNA 1: CAATCTGAATTCCGGTCTCCC
# DNA 2: TGGTGGCTACGACGGGATT
# B13: ACAGCAG (DNA:RNA)
# RNA: B1 RNA with G25A, G26C, G27A, C28G, G29C, G30A
# DNA 1: CAATCTGAATTCCGGTCTCCC
# DNA 2: TGGTGGCTACGACGGGATT
# B14: UGAGCCG (DNA:RNA)
# RNA: B1 RNA with G25U, G27A, C28G, G29C, G30C
# DNA 1: CAATCTGAATTCCGGTCTCCC
# DNA 2: TGGTGGCTACGACGGGATT
# B15: ACUACCG (DNA:RNA)
# RNA: B1 RNA with G25A, G26C, G27U, C28A, G29C, G30C
# DNA 1: CAATCTGAATTCCGGTCTCCC
# DNA 2: TGGTGGCTACGACGGGATT
# B16: GCGUCAC (DNA:RNA)
# RNA: B1 RNA with G26C, C28U, G29C, G30A, G31C
# DNA 1: CAATCTGAATTCCGGTCTCCC
# DNA 2: TGGTGGCTACGACGGGATT
# B17: CAAUGCG (DNA:RNA)
# RNA: B1 RNA with G25C, G26A, G27A, C28U, G30C
# DNA 1: CAATCTGAATTCCGGTCTCCC
# DNA 2: TGGTGGCTACGACGGGATT
# B18: GAUGCCC (DNA:RNA)
# RNA: B1 RNA with G26A, G27U, C28G, G29C, G30C, G31C
# DNA 1: CAATCTGAATTCCGGTCTCCC
# DNA 2: TGGTGGCTACGACGGGATT
# B19: UCUUUAA (DNA:RNA)
# RNA: GGGAGACCGGAAUUCAGAUUGUCCUCUUUAAUUAAAUCCCGUCGUAGCCACCA
# DNA 1: CAATCTGAATTCCGGTCTCCC
# DNA 2: TGGTGGCTACGACGGGATT
# B20: UUACGUC (DNA:RNA)
# RNA: B1 RNA with G25U, G26U, G27A, G30U, G31C
# DNA 1: CAATCTGAATTCCGGTCTCCC
# DNA 2: TGGTGGCTACGACGGGATT
# Target: T1, RBFOX1 RRM RbFoxmut (Fox-RRM*)
# Assay: EMSA; HiTS-Eq, 1 nM pool, 10 min; buffer printed only for the single-RNA assays: 10 mM Tris pH 7.5, 150 mM NaCl, 3.4 mM EDTA, 0.001% NP-40, 30 C
# Details: tags: His6 N-terminal (pET28a); label: 5' 32P
# Procedure, shortened: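 Purified RbFox RRM (wild type or mutant) was equilibrated for 10 min in 50 µL with 1 nM of a 5′-radiolabelled pool of RNA with 7 randomized nucleotides, its flanks annealed to DNA oligonucleotides, across increasing protein concentrations. Free RNA was separated by 8% native PAGE, excised, reverse-transcribed, PCR-barcoded and sequenced on an Illumina HiSeq 2500. Relative association constants came from read-count changes of each variant against the control reaction, normalised to the cognate motif.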
row,Binder,binding signal
1,B1,0.101 KA relative to UGCAUGU
2,B2,0.0891 KA relative to UGCAUGU
3,B3,0.2 KA relative to UGCAUGU
4,B4,0.109 KA relative to UGCAUGU
5,B5,0.175 KA relative to UGCAUGU
6,B6,0.112 KA relative to UGCAUGU
7,B7,0.0498 KA relative to UGCAUGU
8,B8,0.496 KA relative to UGCAUGU
9,B9,0.123 KA relative to UGCAUGU
10,B10,0.111 KA relative to UGCAUGU
11,B11,0.079 KA relative to UGCAUGU
12,B12,0.0743 KA relative to UGCAUGU
13,B13,0.0954 KA relative to UGCAUGU
14,B14,0.0906 KA relative to UGCAUGU
15,B15,0.0881 KA relative to UGCAUGU
16,B16,0.0714 KA relative to UGCAUGU
17,B17,0.13 KA relative to UGCAUGU
18,B18,0.0444 KA relative to UGCAUGU
19,B19,0.113 KA relative to UGCAUGU
20,B20,0.0615 KA relative to UGCAUGU
